Test results: patent publication US20110319597A1 (CAPHALON AUSTRALIA, published 2011)

B1: TNFα dAb Fc variant L73P (Fc fusion, name in Kabat numbering)
chain: DIQMTQSPSSLSASVGDRVTITCRASQAIDSYLHWYQQKPGKAPKLLIYSASNLETGVPSRFSGSGSGTDFTPTISSLLPEDFATYYCQQVVWRPFTFGQGTKVEIKRV[human IgG1 Fc with changes left out]
B2: TNFα dAb Fc variant L73Y (Fc fusion, name in Kabat numbering)
chain: DIQMTQSPSSLSASVGDRVTITCRASQAIDSYLHWYQQKPGKAPKLLIYSASNLETGVPSRFSGSGSGTDFTYTISSLLPEDFATYYCQQVVWRPFTFGQGTKVEIKRV[human IgG1 Fc with changes left out]
B3: TNFα dAb Fc variant Q38P (Fc fusion, name in Kabat numbering)
chain: DIQMTQSPSSLSASVGDRVTITCRASQAIDSYLHWYQPKPGKAPKLLIYSASNLETGVPSRFSGSGSGTDFTLTISSLLPEDFATYYCQQVVWRPFTFGQGTKVEIKRV[human IgG1 Fc with changes left out]
B4: TNFα dAb Fc variant R61Q (Fc fusion, name in Kabat numbering)
chain: DIQMTQSPSSLSASVGDRVTITCRASQAIDSYLHWYQQKPGKAPKLLIYSASNLETGVPSQFSGSGSGTDFTLTISSLLPEDFATYYCQQVVWRPFTFGQGTKVEIKRV[human IgG1 Fc with changes left out]
B5: TNFα dAb Fc variant R61L (Fc fusion, name in Kabat numbering)
chain: DIQMTQSPSSLSASVGDRVTITCRASQAIDSYLHWYQQKPGKAPKLLIYSASNLETGVPSLFSGSGSGTDFTLTISSLLPEDFATYYCQQVVWRPFTFGQGTKVEIKRV[human IgG1 Fc with changes left out]
B6: TNFα dAb Fc variant Q37D (Fc fusion, name in Kabat numbering)
chain: DIQMTQSPSSLSASVGDRVTITCRASQAIDSYLHWYDQKPGKAPKLLIYSASNLETGVPSRFSGSGSGTDFTLTISSLLPEDFATYYCQQVVWRPFTFGQGTKVEIKRV[human IgG1 Fc with changes left out]
B7: TNFα dAb Fc variant S63D (Fc fusion, name in Kabat numbering)
chain: DIQMTQSPSSLSASVGDRVTITCRASQAIDSYLHWYQQKPGKAPKLLIYSASNLETGVPSRFDGSGSGTDFTLTISSLLPEDFATYYCQQVVWRPFTFGQGTKVEIKRV[human IgG1 Fc with changes left out]
B8: TNFα dAb Fc variant S63L (Fc fusion, name in Kabat numbering)
chain: DIQMTQSPSSLSASVGDRVTITCRASQAIDSYLHWYQQKPGKAPKLLIYSASNLETGVPSRFLGSGSGTDFTLTISSLLPEDFATYYCQQVVWRPFTFGQGTKVEIKRV[human IgG1 Fc with changes left out]
B9: TNFα dAb Fc variant L78K (Fc fusion, name in Kabat numbering)
chain: DIQMTQSPSSLSASVGDRVTITCRASQAIDSYLHWYQQKPGKAPKLLIYSASNLETGVPSRFSGSGSGTDFTLTISSKLPEDFATYYCQQVVWRPFTFGQGTKVEIKRV[human IgG1 Fc with changes left out]
B10: TNFα dAb Fc variant P44H (Fc fusion, name in Kabat numbering)
chain: DIQMTQSPSSLSASVGDRVTITCRASQAIDSYLHWYQQKPGKAHKLLIYSASNLETGVPSRFSGSGSGTDFTLTISSLLPEDFATYYCQQVVWRPFTFGQGTKVEIKRV[human IgG1 Fc with changes left out]
B11: TNFα dAb Fc variant Q37L (Fc fusion, name in Kabat numbering)
chain: DIQMTQSPSSLSASVGDRVTITCRASQAIDSYLHWYLQKPGKAPKLLIYSASNLETGVPSRFSGSGSGTDFTLTISSLLPEDFATYYCQQVVWRPFTFGQGTKVEIKRV[human IgG1 Fc with changes left out]
B12: TNFα dAb Fc variant P80H (Fc fusion, name in Kabat numbering)
chain: DIQMTQSPSSLSASVGDRVTITCRASQAIDSYLHWYQQKPGKAPKLLIYSASNLETGVPSRFSGSGSGTDFTLTISSLLHEDFATYYCQQVVWRPFTFGQGTKVEIKRV[human IgG1 Fc with changes left out]
B13: TNFα dAb Fc variant L79G (Fc fusion, name in Kabat numbering)
chain: DIQMTQSPSSLSASVGDRVTITCRASQAIDSYLHWYQQKPGKAPKLLIYSASNLETGVPSRFSGSGSGTDFTLTISSLGPEDFATYYCQQVVWRPFTFGQGTKVEIKRV[human IgG1 Fc with changes left out]
B14: TNFα dAb Fc variant L47K (Fc fusion, name in Kabat numbering)
chain: DIQMTQSPSSLSASVGDRVTITCRASQAIDSYLHWYQQKPGKAPKLKIYSASNLETGVPSRFSGSGSGTDFTLTISSLLPEDFATYYCQQVVWRPFTFGQGTKVEIKRV[human IgG1 Fc with changes left out]
B15: TNFα dAb Fc variant R61S (Fc fusion, name in Kabat numbering)
chain: DIQMTQSPSSLSASVGDRVTITCRASQAIDSYLHWYQQKPGKAPKLLIYSASNLETGVPSSFSGSGSGTDFTLTISSLLPEDFATYYCQQVVWRPFTFGQGTKVEIKRV[human IgG1 Fc with changes left out]
B16: TNFα dAb Fc variant S63A (Fc fusion, name in Kabat numbering)
chain: DIQMTQSPSSLSASVGDRVTITCRASQAIDSYLHWYQQKPGKAPKLLIYSASNLETGVPSRFAGSGSGTDFTLTISSLLPEDFATYYCQQVVWRPFTFGQGTKVEIKRV[human IgG1 Fc with changes left out]
B17: TNFα dAb Fc variant P44Q (Fc fusion, name in Kabat numbering)
chain: DIQMTQSPSSLSASVGDRVTITCRASQAIDSYLHWYQQKPGKAQKLLIYSASNLETGVPSRFSGSGSGTDFTLTISSLLPEDFATYYCQQVVWRPFTFGQGTKVEIKRV[human IgG1 Fc with changes left out]
B18: TNFα dAb Fc variant L73S (Fc fusion, name in Kabat numbering)
chain: DIQMTQSPSSLSASVGDRVTITCRASQAIDSYLHWYQQKPGKAPKLLIYSASNLETGVPSRFSGSGSGTDFTSTISSLLPEDFATYYCQQVVWRPFTFGQGTKVEIKRV[human IgG1 Fc with changes left out]
B19: TNFα dAb Fc variant L47S (Fc fusion, name in Kabat numbering)
chain: DIQMTQSPSSLSASVGDRVTITCRASQAIDSYLHWYQQKPGKAPKLSIYSASNLETGVPSRFSGSGSGTDFTLTISSLLPEDFATYYCQQVVWRPFTFGQGTKVEIKRV[human IgG1 Fc with changes left out]
B20: TNFα dAb Fc variant P80D (Fc fusion, name in Kabat numbering)
chain: DIQMTQSPSSLSASVGDRVTITCRASQAIDSYLHWYQQKPGKAPKLLIYSASNLETGVPSRFSGSGSGTDFTLTISSLLDEDFATYYCQQVVWRPFTFGQGTKVEIKRV[human IgG1 Fc with changes left out]
B21: TNFα dAb Fc variant L73K (Fc fusion, name in Kabat numbering)
chain: DIQMTQSPSSLSASVGDRVTITCRASQAIDSYLHWYQQKPGKAPKLLIYSASNLETGVPSRFSGSGSGTDFTKTISSLLPEDFATYYCQQVVWRPFTFGQGTKVEIKRV[human IgG1 Fc with changes left out]
B22: TNFα dAb Fc variant L78S (Fc fusion, name in Kabat numbering)
chain: DIQMTQSPSSLSASVGDRVTITCRASQAIDSYLHWYQQKPGKAPKLLIYSASNLETGVPSRFSGSGSGTDFTLTISSSLPEDFATYYCQQVVWRPFTFGQGTKVEIKRV[human IgG1 Fc with changes left out]
B23: TNFα dAb Fc variant L73Q (Fc fusion, name in Kabat numbering)
chain: DIQMTQSPSSLSASVGDRVTITCRASQAIDSYLHWYQQKPGKAPKLLIYSASNLETGVPSRFSGSGSGTDFTQTISSLLPEDFATYYCQQVVWRPFTFGQGTKVEIKRV[human IgG1 Fc with changes left out]
B24: TNFα dAb Fc variant S63H (Fc fusion, name in Kabat numbering)
chain: DIQMTQSPSSLSASVGDRVTITCRASQAIDSYLHWYQQKPGKAPKLLIYSASNLETGVPSRFHGSGSGTDFTLTISSLLPEDFATYYCQQVVWRPFTFGQGTKVEIKRV[human IgG1 Fc with changes left out]
B25: TNFα dAb Fc variant L78A (Fc fusion, name in Kabat numbering)
chain: DIQMTQSPSSLSASVGDRVTITCRASQAIDSYLHWYQQKPGKAPKLLIYSASNLETGVPSRFSGSGSGTDFTLTISSALPEDFATYYCQQVVWRPFTFGQGTKVEIKRV[human IgG1 Fc with changes left out]
B26: TNFα dAb Fc variant P44K (Fc fusion, name in Kabat numbering)
chain: DIQMTQSPSSLSASVGDRVTITCRASQAIDSYLHWYQQKPGKAKKLLIYSASNLETGVPSRFSGSGSGTDFTLTISSLLPEDFATYYCQQVVWRPFTFGQGTKVEIKRV[human IgG1 Fc with changes left out]
B27: TNFα dAb Fc variant L47Y (Fc fusion, name in Kabat numbering)
chain: DIQMTQSPSSLSASVGDRVTITCRASQAIDSYLHWYQQKPGKAPKLYIYSASNLETGVPSRFSGSGSGTDFTLTISSLLPEDFATYYCQQVVWRPFTFGQGTKVEIKRV[human IgG1 Fc with changes left out]
B28: TNFα dAb Fc variant Q37S (Fc fusion, name in Kabat numbering)
chain: DIQMTQSPSSLSASVGDRVTITCRASQAIDSYLHWYSQKPGKAPKLLIYSASNLETGVPSRFSGSGSGTDFTLTISSLLPEDFATYYCQQVVWRPFTFGQGTKVEIKRV[human IgG1 Fc with changes left out]
B29: TNFα dAb Fc variant Q38L (Fc fusion, name in Kabat numbering)
chain: DIQMTQSPSSLSASVGDRVTITCRASQAIDSYLHWYQLKPGKAPKLLIYSASNLETGVPSRFSGSGSGTDFTLTISSLLPEDFATYYCQQVVWRPFTFGQGTKVEIKRV[human IgG1 Fc with changes left out]

What follows are binders tested against T1, recombinant human TNFα (CytoLab) (human, UniProt P01375 part only) (assay: ELISA on coated human TNFα).
T1 construct: coated on the ELISA plate at 1 µg/ml; also called Tumour necrosis factor alpha
T1 sequence (P01375 77-233 limits assumed): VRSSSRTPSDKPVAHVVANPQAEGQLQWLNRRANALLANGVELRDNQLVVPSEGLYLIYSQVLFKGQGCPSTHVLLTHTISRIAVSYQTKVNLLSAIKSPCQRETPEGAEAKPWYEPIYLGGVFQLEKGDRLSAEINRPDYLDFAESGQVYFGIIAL
With B1 the “A450 (AU)” value was 0.173 AU.
For B2, the “A450 (AU)” value was 0.204 AU.
B3 was tested, and the “A450 (AU)” value was 0.156 AU.
B4 was tested, and the “A450 (AU)” value was 0.395 AU.
In the case of B5, the “A450 (AU)” value is reported as 0.211 AU.
For B6, the “A450 (AU)” value was 0.251 AU.
With B7 the “A450 (AU)” value was 0.873 AU.
With B8 the “A450 (AU)” value was 0.751 AU.
For B9, the “A450 (AU)” value was 0.489 AU.
In the case of B10, the “A450 (AU)” value is reported as 0.309 AU.
In the case of B11, the “A450 (AU)” value is reported as 0.885 AU.
For B12, the “A450 (AU)” value was 0.77 AU.
With B13 the “A450 (AU)” value was 1.4 AU.
In the case of B14, the “A450 (AU)” value is reported as 0.271 AU.
For B15, the “A450 (AU)” value was 0.768 AU.
With B16 the “A450 (AU)” value was 0.897 AU.
With B17 the “A450 (AU)” value was 0.182 AU.
With B18 the “A450 (AU)” value was 0.152 AU.
With B19 the “A450 (AU)” value was 0.222 AU.
With B20 the “A450 (AU)” value was 0.741 AU.
B21 was tested, and the “A450 (AU)” value was 0.269 AU.
B22 was tested, and the “A450 (AU)” value was 0.61 AU.
B23 was tested, and the “A450 (AU)” value was 0.155 AU.
In the case of B24, the “A450 (AU)” value is reported as 0.774 AU.
In the case of B25, the “A450 (AU)” value is reported as 0.847 AU.
With B26 the “A450 (AU)” value was 0.187 AU.
For B27, the “A450 (AU)” value was 0.903 AU.
With B28 the “A450 (AU)” value was 0.962 AU.
For B29, the “A450 (AU)” value was 0.649 AU.
